Patent publication US20090324624A1, “Chitin micro-particles as an adjuvant” (priority 2006, published 2009)

Key:
RAW 264.7 cells [1] = assay: Cellular cholesterol level after MBCD; conditions: 5 mM MBCD, with or without 5% heat-inactivated FBS
Experimental: (§1) For all experiments testing MAPK activation, MØ were incubated in serum-free RPMI 1640 at 37° C. for 2 h to achieve serum starvation prior to MBCD treatment. To deplete cholesterol, MØ were incubated with 0 (saline), 1 or 5 mM MBCD at 37° C. for 1 h, prior to chitin particle stimulation. Cell viability was determined by trypan blue exclusion and lactate dehydrogenase (LDH) release according to the manufacturer's instructions (Cytotoxity Colorimetric Assay Kit, Oxford Biomedical Research, Oxford, Mich.).
Cholesterol was extracted from cell pellets (10^6 cells) with methanol/chloroform (2:1), followed by addition of an equal volume of chloroform/water (1:1). Cholesterol was recovered from the chloroform layer by lyophilization. Extracted lipids were dissolved in the buffer for Cholesterol E test (Wako Bioproducts, Richmond, Va.) and cholesterol in the extract was determined by enzymatic colorimetric assay, according to the manufacturer's instructions. Cellular protein was measured, as described previously and cholesterol levels were normalized to the protein levels. Normalized cholesterol levels of saline-treated MØ were considered as 100%.

RAW 264.7 cells [2] = assay: MØ viability after MBCD (trypan blue, LDH release); conditions: MBCD at 5 mM or less
Experimental: as §1

methyl-β-cyclodextrin [MBCD]
cellular cholesterol levels, % of that present prior to treatment (RAW 264.7 cells [1]): 40-45%
cell viability at 24 h (RAW 264.7 cells [2]): did not reduce cell viability
